Assay results taken from the supplement of paper PMC10126150.
Values marked as one replicate rest on one cluster of the flow cell; about a third of the high ones do not repeat.

System: ATP
Assay: switch fluorescence ratio, 500 uM ATP over buffer (Cy3 cluster intensity, sum of 5 cycles each) (fold (ratio)); higher = stronger signal-on switching upon ATP binding; sequences stand for … in TCGTCGGCAGCGTCAGATGTGTATAAGAGACAGTTTTTTTTTTTTTTTTTTTTTTTTT…TC
Conditions: aptamer strand: ATP DNA aptamer (quencher-CACCTGGGGGAGTATTGCGGAGGAAGG + anchor), 100 nM annealed; ATP concentration: 500 uM; one replicate
Method in brief: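 Per cluster, summed Cy3 intensity from the target cycles was divided by that from the buffer cycles to give the fluorescence ratio, then averaged per switch-domain sequence. Clusters outside 100-1000 RFU were excluded. The Cy3-labelled switching-strand clusters, on a modified Illumina MiSeq flow-cell, were annealed to 100 nM quencher-labelled ATP aptamer and imaged in selection buffer, then after 15 min with 500 uM ATP at 22 °C, for five cycles with NaOH stripping and re-annealing between them.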
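Also: ATP exposure 15 min at 22 °C before imaging.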

## ATGGGTAAGT
  switch fluorescence ratio: 1

## CTGATCAGGG
  switch fluorescence ratio: 0.956

## TTGAGGAGCT
  switch fluorescence ratio: 0.98

## AGACCGGGTC
  switch fluorescence ratio: 0.94

## CTCTAGGTAC
  switch fluorescence ratio: 3.27

## ACCCATGAAT
  switch fluorescence ratio: 0.955

## TTTGTGAGCT
  switch fluorescence ratio: 0.966

## TGTGGGACTC
  switch fluorescence ratio: 1.1

## AGAATATTGT
  switch fluorescence ratio: 0.966

## ATGATGTACC
  switch fluorescence ratio: 1.15

## TTCTTAGTTG
  switch fluorescence ratio: 0.953

## GGCATTGGTA
  switch fluorescence ratio: 0.984

## CTCGTTTCTG
  switch fluorescence ratio: 1.02

## TGCAGAACTC
  switch fluorescence ratio: 1.42

## GGTCTTCGGA
  switch fluorescence ratio: 1.12

## TCTTTACTTA
  switch fluorescence ratio: 1.04

## AACGGAGGGA
  switch fluorescence ratio: 1.02

## TCAGATGATT
  switch fluorescence ratio: 1.03

## ATAGAAGGAT
  switch fluorescence ratio: 0.977

## CCGGTGTTAT
  switch fluorescence ratio: 1.14

## TAGGTGTACG
  switch fluorescence ratio: 0.976

## GCATTGAAAC
  switch fluorescence ratio: 0.945

## GAACAGTGTT
  switch fluorescence ratio: 1.01

## CTGTTTTCTG
  switch fluorescence ratio: 0.981

## CGGCGCGAAC
  switch fluorescence ratio: 4.61

## ACGGGAAAGC
  switch fluorescence ratio: 1.03

## GGCTGAATCG
  switch fluorescence ratio: 0.968

## GAAATAGAGC
  switch fluorescence ratio: 0.932

## TTGCAGAGGT
  switch fluorescence ratio: 1.02

## GTGGGATTA
  switch fluorescence ratio: 1.03

## GATCCTAT
  switch fluorescence ratio: 0.955

## TAAGACATTC
  switch fluorescence ratio: 0.999

## TGCTGGAGGC
  switch fluorescence ratio: 1.01

## TTCGTACGTT
  switch fluorescence ratio: 1.01

## TAACTCGGGG
  switch fluorescence ratio: 1.02

## GTGCCAACCA
  switch fluorescence ratio: 1.01

## CCATGCACGT
  switch fluorescence ratio: 1.1

## TAATCCGTGG
  switch fluorescence ratio: 0.997

## TTGGGGTAGT
  switch fluorescence ratio: 0.984

## AAAAACCGCG
  switch fluorescence ratio: 1.22

## TTAGGCGAT
  switch fluorescence ratio: 1.03

## GATGAAGTAA
  switch fluorescence ratio: 1.04

## CTGTCCGGAT
  switch fluorescence ratio: 0.969

## GGGTGCCTTA
  switch fluorescence ratio: 0.965

## TACCGGCCTA
  switch fluorescence ratio: 1.03

## GCCCTGTTCC
  switch fluorescence ratio: 0.997

## CCATGACTAT
  switch fluorescence ratio: 0.996

## GGGATCTGTG
  switch fluorescence ratio: 1.02

## CGATCGAAAC
  switch fluorescence ratio: 1.03

## CCCTAGGCAC
  switch fluorescence ratio: 1.13

## CGCCAATA
  switch fluorescence ratio: 1.04

## CGGCGCTTTC
  switch fluorescence ratio: 1.99

## ACGTGATCTC
  switch fluorescence ratio: 1.21

## TCTCGGTATT
  switch fluorescence ratio: 0.987

## CTGCTCTAGG
  switch fluorescence ratio: 1.08

## TTCATAGCGC
  switch fluorescence ratio: 1.03

## GATGAGACGG
  switch fluorescence ratio: 1.01

## TGATAAGACC
  switch fluorescence ratio: 0.96

## AGTTGGGATA
  switch fluorescence ratio: 0.993

## CAAGGATTAC
  switch fluorescence ratio: 1.15

## ACACCGGGTG
  switch fluorescence ratio: 1.32

## TGGGCAGTCG
  switch fluorescence ratio: 1.1

## TTGCTTGGCG
  switch fluorescence ratio: 0.985

## AGGCTCGTCC
  switch fluorescence ratio: 1.01

## TTGTTTTTAA
  switch fluorescence ratio: 1.02

## ATTTCTTACG
  switch fluorescence ratio: 1.01

## ATTCGGGTAT
  switch fluorescence ratio: 0.984

## TCCTGGGATC
  switch fluorescence ratio: 1.02

## TATGAGGTGG
  switch fluorescence ratio: 1.06

## AGGCCTCAAC
  switch fluorescence ratio: 1.05

## TACTACTACT
  switch fluorescence ratio: 1.18

## AGGGTATAGG
  switch fluorescence ratio: 0.998

## GGTGAATCGG
  switch fluorescence ratio: 0.963

## AAAGGAGCAA
  switch fluorescence ratio: 1.43

## TACTTGCA
  switch fluorescence ratio: 1.09

## GCAATTTCTG
  switch fluorescence ratio: 1.02

## AACTGATCTT
  switch fluorescence ratio: 0.977

## AATTTTAGGG
  switch fluorescence ratio: 0.926

## ACTACCGCTA
  switch fluorescence ratio: 2.02

## ATTTGTATAA
  switch fluorescence ratio: 0.943

## AATTACACTA
  switch fluorescence ratio: 1.03

## ACAGGTCTGC
  switch fluorescence ratio: 1.06

## GCAGAAAAG
  switch fluorescence ratio: 1.1

## CTTTTCCAGT
  switch fluorescence ratio: 1.03

## GGTCTATTAG
  switch fluorescence ratio: 0.981

## GCCGGCGCAA
  switch fluorescence ratio: 2.26

## TAAGCTACTG
  switch fluorescence ratio: 1.11

## TTTAGTTGGC
  switch fluorescence ratio: 1.03

## TGATGTTCTT
  switch fluorescence ratio: 1.03

## ACTGATAGTG
  switch fluorescence ratio: 1.01

## ACGACATGTG
  switch fluorescence ratio: 1.05

## TGAGTTCAGT
  switch fluorescence ratio: 1.02

## TTTAGGGTT
  switch fluorescence ratio: 0.964

## TGCGATGAGA
  switch fluorescence ratio: 1.04

## TTGAATGCTA
  switch fluorescence ratio: 0.992

## GGTGTTT
  switch fluorescence ratio: 1.06

## ATACCGTAGG
  switch fluorescence ratio: 1.02

## TCGGATGTCT
  switch fluorescence ratio: 0.989

## TAGCTTTAGC
  switch fluorescence ratio: 0.958

## CTGATGAGAC
  switch fluorescence ratio: 2.5

## GAGGCCCATC
  switch fluorescence ratio: 1.02

## AAGCATCGTC
  switch fluorescence ratio: 0.996

## GTGTAAGCCA
  switch fluorescence ratio: 0.966

## TATTTATGGA
  switch fluorescence ratio: 1.01

## CAAGTTGGGT
  switch fluorescence ratio: 1.02

## ACAAACATCG
  switch fluorescence ratio: 1

## AACAGGAGTC
  switch fluorescence ratio: 0.994

## GTGAATCTAT
  switch fluorescence ratio: 1

## TTCACAATGT
  switch fluorescence ratio: 1.05

## TGACCCCCGC
  switch fluorescence ratio: 1.44

## TCAATCTGGT
  switch fluorescence ratio: 1.08

## CGCCATGTTC
  switch fluorescence ratio: 1.11

## TTTCGGATCC
  switch fluorescence ratio: 0.994

## AACTGGTAGC
  switch fluorescence ratio: 1.02

## AGGCACTTTG
  switch fluorescence ratio: 1

## ACCCGAAGT
  switch fluorescence ratio: 1.09

## GTTCGATTCC
  switch fluorescence ratio: 1.02

## CCCATCGGT
  switch fluorescence ratio: 0.989

## ACAATCCACA
  switch fluorescence ratio: 1.01

## GCAACAACAT
  switch fluorescence ratio: 1.02

## CTTTATGATA
  switch fluorescence ratio: 1.03

## CAAAGGCACG
  switch fluorescence ratio: 1.05

## GGTCAATGCG
  switch fluorescence ratio: 1.17

## ATAAACGAA
  switch fluorescence ratio: 0.963

## AGGGATACGC
  switch fluorescence ratio: 1.02

## TAGAACATAG
  switch fluorescence ratio: 1.03

## TTTCTTGTGG
  switch fluorescence ratio: 1

## TCTGGTACCA
  switch fluorescence ratio: 1.03

## GATACGCTAT
  switch fluorescence ratio: 1.69

## TTGCGCTCAG
  switch fluorescence ratio: 1.01

## AGGCGGACT
  switch fluorescence ratio: 0.994

## TGGTT
  switch fluorescence ratio: 0.98

## CGACATGCGA
  switch fluorescence ratio: 1.16

## AGTTTCGATA
  switch fluorescence ratio: 0.995

## CTGGCGGCAG
  switch fluorescence ratio: 1.02

## CGGCTTTACG
  switch fluorescence ratio: 1.04

## CCTCAGGGGA
  switch fluorescence ratio: 3.61

## AAGTAATGTA
  switch fluorescence ratio: 1.04

## ACCGAACCGC
  switch fluorescence ratio: 2.22

## GTTACTCTAT
  switch fluorescence ratio: 0.997

## CTCTGTAT
  switch fluorescence ratio: 1.09

## CGGAAAACGC
  switch fluorescence ratio: 1.06

## GCATGGGGA
  switch fluorescence ratio: 1.05

## TATAAAAG
  switch fluorescence ratio: 1.02

## CCGAACTGTG
  switch fluorescence ratio: 1.07

## ACCACGGTGG
  switch fluorescence ratio: 0.954

## ATTGGATACA
  switch fluorescence ratio: 1.02

## ATGTACGAAC
  switch fluorescence ratio: 1.35

## CTGGTTCCTG
  switch fluorescence ratio: 0.944

## GTCCGACAGC
  switch fluorescence ratio: 1.57

## AATCAACTGG
  switch fluorescence ratio: 0.953

## GCTGTGGTCG
  switch fluorescence ratio: 1.05

## GATTGGTTTT
  switch fluorescence ratio: 1.02

## TGGATTGCTC
  switch fluorescence ratio: 1.56

## CAAAGGACCC
  switch fluorescence ratio: 1.04

## TTTGCGGTTC
  switch fluorescence ratio: 1.57

## CGCTTTGTTA
  switch fluorescence ratio: 1.01

## TCTGTTATTC
  switch fluorescence ratio: 1.06
